Data from PubChem BioAssay AID588342 (National Center for Advancing Translational Sciences (NCATS), 2011).
Out of some 360,000 compounds screened, about 25,000 (6.9%) were called active. Inconclusive means that the source gave no clear call. Such entries were picked first, then a sample of the others. Calls come from the whole dose curve; as a rule, active = well fitted inhibition curve with a large enough effect; inconclusive = small, poorly fitted or top-dose-only effect; inactive = flat fitted curve, though single readings scatter. Potencies beside an inconclusive call are fits to weak or partial responses and may not hold up.

Target: Luciferin 4-monooxygenase (Photinus pyralis) (UniProt P08659)
Sequence of UniProt P08659 (P08659 whole entry, looked up): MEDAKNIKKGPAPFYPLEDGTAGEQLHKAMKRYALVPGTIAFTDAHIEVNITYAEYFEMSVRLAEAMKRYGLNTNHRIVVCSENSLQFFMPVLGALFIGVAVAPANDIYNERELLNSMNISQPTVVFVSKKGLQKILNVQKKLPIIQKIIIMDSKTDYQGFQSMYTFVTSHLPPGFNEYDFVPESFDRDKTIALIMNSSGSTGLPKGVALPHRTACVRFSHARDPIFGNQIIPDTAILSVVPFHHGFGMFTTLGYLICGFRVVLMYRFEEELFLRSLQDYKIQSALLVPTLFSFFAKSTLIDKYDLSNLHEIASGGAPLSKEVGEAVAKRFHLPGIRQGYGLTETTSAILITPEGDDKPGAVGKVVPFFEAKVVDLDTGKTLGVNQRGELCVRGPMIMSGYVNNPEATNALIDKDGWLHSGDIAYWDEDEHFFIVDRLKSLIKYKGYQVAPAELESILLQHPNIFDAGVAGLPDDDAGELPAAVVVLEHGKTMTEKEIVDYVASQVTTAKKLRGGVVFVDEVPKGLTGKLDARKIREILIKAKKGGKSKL
Test: qHTS profiling assay for firefly luciferase inhibitor/activator using purifed enzyme and Km concentrations of substrates (counterscreen for miR-21 project); note: nearly all actives have a fitted effect of over 55% in size
Conditions: purified FLuc, luminescence inhibition; series mostly up to 57.5 µM
Method in brief: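 Purified P. pyralis luciferase, 10 nM final, with Km-level 10 uM D-luciferin and 10 uM ATP in 50 mM Tris acetate pH 7.5, 10 mM Mg acetate, 0.01% Tween-20, 0.05% BSA; 6-point qHTS titration about 60 µM downward; luminescence read.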
Potency is the fitted concentration of half-maximal effect; tags give direction and shape of the fitted curve.

Row | SMILES | Potency
1 | CCc1ccc(OCC(=O)Nc2ncn[nH]2)c(Br)c1 | active: 1.07 µM
2 | COc1cc(/C=C2\SC(=Nc3cccnc3)NC2=O)cc(OC)c1OC | inconclusive: 23.9 µM [inhibitor, partial curve, poor fit]
3 | COc1cccc(-c2noc(-c3cc(C(C)C)[nH]n3)n2)c1OC | active: 16.9 µM
4 | Cc1nnc(N/N=C/c2cc(C)n(-c3ccc(F)cc3)c2C)n1N | inconclusive: 30.1 µM [inhibitor, single point]
5 | CCn1cc([N+](=O)[O-])c(C(=O)N2N=C(c3ccc4ccccc4c3)CC2c2ccccc2O)n1 (stereo unspecified) | inconclusive: 21.3 µM [inhibitor, single point]
6 | COc1ccc(O)c(C(=O)c2coc(=N)c(C(=O)Nc3ccc(SC(F)F)cc3)c2)c1 | inconclusive: 37.9 µM [inhibitor, partial curve, poor fit]
7 | COc1ccc(N2CCN(C(=O)CCC(=O)N3Cc4ccccc4Oc4ncccc43)CC2)cc1 | inactive
8 | CCOC(=O)c1sc(Nc2ccc(OCC)cc2)nc1C | inconclusive: 33.8 µM [inhibitor, single point]
9 | Cc1nn(-c2cccc(C(F)(F)F)c2)c(=O)c2ccccc12 | inconclusive: 37.9 µM [inhibitor, partial curve, poor fit]
10 | COc1ccccc1Nc1nc(NCCC(C)C)nc(N)c1[N+](=O)[O-] | inactive
11 | CCC(=O)c1cc(F)ccc1OCC(=O)Nc1ccc2c(c1)OCCO2 | inactive
12 | Cc1cc(C)n(-c2nc(SCCN(C)C)c3c4c(sc3n2)CCCC4)n1 | inconclusive: 21.3 µM [inhibitor, single point]
13 | COc1cccc(/C=C2\N=C(SC)SC2=O)c1OC | inconclusive: 16.9 µM [inhibitor, partial curve]
14 | O=C(CN1C(=O)S/C(=C\c2ccccc2)C1=O)NC1CCS(=O)(=O)C1 (stereo unspecified) | inactive
15 | O=C(O)CCc1nc(-c2ccc(Cl)cc2)no1 | inactive
16 | Cc1ccc(-c2onc3ccc(Cl)cc23)cc1 | inconclusive: 9.53 µM [inhibitor, partial curve, poor fit]
17 | CCN(Cc1ccccc1)C(=O)c1oc2ccc(C)cc2c1C | inconclusive: 23.9 µM [inhibitor, single point]
18 | O=C(COc1ccccc1F)Nc1ccc(OCc2cc(=O)n3ccccc3n2)cc1 | inactive
19 | Cn1c(-c2ccccc2)cc2ccccc21 | inconclusive: 30.1 µM [inhibitor, single point]
20 | Cc1ccccc1C(=O)NCCCc1ccccc1 | inconclusive: 23.9 µM [inhibitor, single point]
21 | O=C(Nc1ccc(Cl)c(Cl)c1)Nc1ccc([N+](=O)[O-])cn1 | inactive
22 | Cc1ccc(Nc2c([N+](=O)[O-])c(=O)n(C)c3ccccc23)cc1C | inconclusive: 21.3 µM [inhibitor, partial curve]
23 | O=C(Cc1ccccc1)Nc1cccc(NC(=O)c2ccccc2)c1 | inconclusive: 23.9 µM [inhibitor, partial curve, poor fit]
24 | COc1ccc(OC)c(Cc2nnc(CCC(=O)NCc3ccsc3)o2)c1 | inconclusive: 37.9 µM [inhibitor, partial curve, poor fit]

Row | SMILES | Potency
25 | Cc1ccc(C(=O)Nc2ccccc2N2CCCC2)s1 | inconclusive: 33.8 µM [inhibitor, single point]
26 | CCCCn1c(N)c(N(CC(C)C)C(=O)c2cc3c(s2)CCCCC3)c(=O)[nH]c1=O | inconclusive: 37.9 µM [inhibitor, partial curve, poor fit]
27 | Cc1c(C(=O)NCc2ccccc2CN2CCCC2)oc2ccc(F)cc12 | inactive
28 | CCc1ccc(C(=O)COC(=O)CNC(=O)COc2ccccc2)cc1 | inconclusive: 26.9 µM [inhibitor, single point]
29 | CO/N=C/c1ccc(N2CCCC2)c([N+](=O)[O-])c1 | active: 16.9 µM
30 | COc1ccc(C2CN=NC23CCc2ccccc2C3=O)cc1 (stereo unspecified) | active: 16.9 µM
31 | Clc1ccc(Nc2ccc(Cl)nn2)cc1 | inconclusive: 16.9 µM [inhibitor, partial curve]
32 | Cc1ccc(OCCSc2ncnc3nc[nH]c23)cc1 | active: 13.5 µM
33 | C=CCn1c(C)cc(C(=O)CN2NS(=O)(=O)c3ccccc3C2=O)c1C | active: 1.69 µM
34 | O=C(CSc1nncs1)Nc1nnc(-c2ccccc2)o1 | inconclusive: 23.9 µM [inhibitor, single point]
35 | O=C1Nc2cc(C(=O)NCCCN3CCOCC3)ccc2S/C1=C/c1ccccc1F | inconclusive: 16.9 µM [inhibitor, partial curve]
36 | O=C1NC(=S)/C(=C\c2ccc(-c3ccccc3Cl)o2)S1 | inconclusive: 30.1 µM [inhibitor, single point]
37 | COc1ccccc1CNc1ncnc2c1cnn2-c1ccc(C)cc1 | active: 16.9 µM
38 | CCN(CC(=O)Nc1ccc(OC)cc1)C(=O)Cc1ccc(OC)c(S(=O)(=O)N2CCOCC2)c1 | inactive
39 | CSc1ccccc1NC(=O)CSc1n[nH]c(C)c1[N+](=O)[O-] | inconclusive: 21.3 µM [inhibitor, single point]
40 | CC(C)c1ccc(OCCCCCN2CCOCC2)cc1 | inconclusive: 26.9 µM [inhibitor, single point]
41 | COc1ccc(C(=O)Nc2ccc3ccccc3n2)cc1OC | active: 13.5 µM
42 | O=C(/C=C/c1ccco1)c1ccccc1O | active: 10.7 µM
43 | Cc1ccc(NC(=O)c2ccc(S(=O)(=O)NCc3ccco3)cc2)nc1 | inconclusive: 26.9 µM [inhibitor, partial curve, poor fit]
44 | Cc1nc2ncccn2c1-c1csc(NCc2ccco2)n1 | inactive
45 | Cc1ccc2nc(NC(=O)CSc3nccn3Cc3ccc(F)cc3)sc2c1 | inconclusive: 26.9 µM [inhibitor, single point]
46 | Cc1cccc(/C=N/NC(=O)c2cccc(Cl)c2)n1 | inconclusive: 21.3 µM [inhibitor, partial curve]
47 | CCn1c(=N)n(CC(=O)c2ccc(Cl)c(Cl)c2)c2ccccc21 | inconclusive: 23.9 µM [inhibitor, single point]
48 | C=CCOc1ccc(/C=C2\SC(N3CCCCC3)=NC2=O)cc1 | inconclusive: 7.57 µM [inhibitor, partial curve, poor fit]

Row | SMILES | Potency
49 | N#Cc1ccccc1S(=O)(=O)N1CCN(C(=O)c2cn(-c3ccccc3)nc2-c2cccnc2)CC1 | inconclusive: 10 µM [inhibitor, partial curve, poor fit]
50 | Cc1ccc(-c2cc(C(=O)O)c3ccccc3n2)c(C)c1 | active: 7.57 µM
51 | c1ccc(-c2nn3c(Cn4nnc5ccccc54)nnc3s2)cc1 | inactive
52 | CCSC1=C(C#N)C2(CCCCC2)C2=C(CC(C)(C)CC2=O)N1 | inconclusive: 37.9 µM [inhibitor, partial curve, poor fit]
53 | COC(=O)C(=Cc1ccccc1[N+](=O)[O-])C(=O)OC | inactive
54 | COc1ccccc1C(O)Cc1nc2ccccc2n1C (stereo unspecified) | inconclusive: 21.3 µM [inhibitor, partial curve]
55 | Cc1ccc(-c2cc(C(=O)Oc3ccc(C#N)cc3)no2)cc1C | inconclusive: 21.3 µM [inhibitor, partial curve, poor fit]
56 | CC(=O)N1CCN(S(=O)(=O)c2cccc(C(=O)Nc3ccc4c(c3)OCO4)c2)CC1 | inconclusive: 37.9 µM [inhibitor, partial curve, poor fit]
57 | Cn1ccnc1SCC(=O)NC1CCCC1 | inactive
58 | COc1ccc(-c2cc(=O)c3ccccc3[nH]2)cc1 | inconclusive: 23.9 µM [inhibitor, single point]
59 | COc1ccccc1NS(=O)(=O)c1cccc(-n2c(O)c(C=Nc3ccccc3C(=O)O)c3ccccc3c2=O)c1 | inconclusive: 37.9 µM [inhibitor, single point]
60 | Cc1ccccc1CCNC(=O)c1ccc2c(c1)nc1n2CCCCC1 | active: 0.536 µM
61 | CC(C)Oc1ccc(C(=O)Nc2ccc(N3CCCC3)cc2)cc1 | inconclusive: 16.9 µM [inhibitor, partial curve]
62 | CCOC(=O)C(Cc1c[nH]c2ccccc12)NC(=O)c1ccccc1Br (stereo unspecified) | active: 0.675 µM
63 | Cc1ccc(OCc2nc(-c3ccccn3)no2)cc1 | active: 4.78 µM
64 | COc1cccc(C(=O)Nc2cc(C(F)(F)F)ccc2Cl)c1 | inconclusive: 21.3 µM [inhibitor, partial curve, poor fit]
65 | C=C(C)CSc1nc2ccccc2[nH]1 | inconclusive: 23.9 µM [inhibitor, single point]
66 | CNC(=O)NC(=O)COc1ccc2oc3c(c2c1)CCCC3 | inconclusive: 9.53 µM [inhibitor, partial curve, poor fit]
67 | Clc1cccc(-c2cc3nc4c(c(N5CCNCC5)n3n2)CCCC4)c1 | inconclusive: 21.3 µM [inhibitor, single point]
68 | COc1ccc(OCCNc2cc(N3CCOCC3)ccc2[N+](=O)[O-])cc1 | inconclusive: 23.9 µM [inhibitor, partial curve]
69 | CCCCOc1ccc(-c2cc(C(F)(F)F)c(C#N)c(SCC(=O)O)n2)cc1 | inconclusive: 21.3 µM [inhibitor, partial curve, poor fit]
70 | Cc1cccc(-c2nc(CN3CCCC(C(=O)NCCc4ccc(Cl)cc4)C3)c(C)o2)c1 (stereo unspecified) | inconclusive: 37.9 µM [inhibitor, partial curve, poor fit]
71 | COc1ccccc1NC(=O)C(Cc1ccc(Cl)cc1)c1nn[nH]n1 (stereo unspecified) | inactive
